From PubChem BioAssay AID504832 (National Center for Advancing Translational Sciences (NCATS), 2011)
The whole screen tested about 310,000 compounds, of which about 18,000 (5.8%) were called active. Inconclusive means that the source gave no clear call. Such entries were picked first, then a sample of the others. The call rests on the fitted dose curve; in most records, active means well fitted inhibition curve with a large enough effect; inconclusive means small, poorly fitted or top-dose-only effect, or another doubt; inactive means no such curve, though single readings can be large or run the other way. No potency is given beside an inconclusive call; the fits are too rough.

assay: Primary qHTS for delayed death inhibitors of the malarial parasite plastid, 48 hour incubation; conditions: P. falciparum luciferase growth in erythrocytes; series mostly up to 28.7 µM
How it was run: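 Erythrocytes infected with P. falciparum carrying an integrated firefly luciferase reporter (2% hematocrit, 0.1% parasitemia final) were exposed to compounds in RPMI 1640 with 0.5% Albumax at 37 C, 5% CO2. Growth inhibition was scored as reduced luminescence.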
Potency means the concentration at half of the fitted maximal effect; tags describe the fitted curve by direction and shape.

SMILES | Potency
Cc1cc(C)nc(-n2nc(C)cc2NC(=O)c2cccc(S(=O)(=O)N(C)C)c2)n1 | inconclusive [inhibitor, partial curve, poor fit]
COc1ccc2oc(=N)c(C(=O)Nc3ccc(F)cc3)cc2c1 | inactive
C=CCNC(=S)N/N=C/c1ccc(-c2cc(Cl)ccc2Cl)o1 | inconclusive [inhibitor, single point]
O=C(NC(=S)N(CCc1ccccc1)CCc1ccccc1)c1ccco1 | inconclusive [inhibitor, single point]
COc1ccc(-c2[nH]ncc2CN2CCC(OCc3ccccn3)CC2)c(F)c1 | inactive
CC(C)(O)C#Cc1ccc(CN2CCCC(CO)(Cc3cccc(Cl)c3)C2)cc1 (configuration not stated) | inconclusive [inhibitor, partial curve]
Cc1ccc(N2C(=O)C3CCCN3C2=S)cc1 (configuration not stated) | inconclusive [inhibitor, single point]
CCOc1ccc(NC(=O)c2cc(C)nc3ccccc23)cc1 | inactive
Cc1ccc(CNC(=O)c2ccc([N+](=O)[O-])o2)cc1 | inconclusive [inhibitor, partial curve]
COc1ccc(-c2cc(C(=O)Nc3cc(Cl)ccc3O)no2)cc1 | inconclusive [inhibitor, partial curve]
COc1cccc(C(C(=O)NC2CCCC2)N(Cc2ccc(C)cc2)C(=O)c2ccco2)c1OC (configuration not stated) | inconclusive [inhibitor, single point]
CCOC(=O)C1(Cc2cccc(OC)c2)CCN(Cc2cccc3cnccc23)CC1 | active: 3.7 µM
C=CCn1c(=NC(=O)CN2C(=O)CCC2=O)sc2cccc(OC)c21 | inactive
O=C(CCl)c1ccc2c(c1)CCN2C(=O)C1CCCCC1 | inconclusive [inhibitor, single point]
CCOC(=O)c1c(N)sc(C(=O)Nc2ccccc2)c1C | inactive
COc1ccccc1Nc1nc(-c2c(C)[nH]c3ccccc23)cs1 | active: 5.22 µM
O=C(CCl)Nc1cn(-c2ccccc2)nc1-c1ccccc1 | inconclusive [inhibitor, single point]
COc1cc(O)c(C(CC(=O)N2CCN(c3ccccc3)CC2)c2ccc3c(c2)OCO3)c(OC)c1 (configuration not stated) | inconclusive [inhibitor, single point]
CCN1CCN(c2ncnc3c2cnn3-c2ccc(C)cc2C)CC1 | inconclusive [inhibitor, partial curve, poor fit]
O=C(NCc1ccccc1)Nc1cccc2ccccc12 | inconclusive [inhibitor, single point]
CCCCNC(=O)CC1C(=O)N(Cc2ccccc2)C(C)c2nc3ccccc3n21 (configuration not stated) | inconclusive [inhibitor, full curve, poor fit]
Cc1nc(N2CCN(Cc3ccc(Cl)cc3)CC2)c2oc3ccccc3c2n1 | inconclusive [inhibitor, single point]
COc1cccc(NC(=S)N(C)C2CCN(C)CC2)c1 | inactive

SMILES | Potency
Cc1cccc(N2CCN(C(c3ccccc3)c3nnnn3CC3CCCO3)CC2)c1C (configuration not stated) | inconclusive [inhibitor, single point]
C=CCn1c(SCC(=O)NC2CCCCC2)nnc1-c1ccccn1 | inactive
[O-]c1n[n+](-c2ccc(Cl)cc2Cl)cc2ccccc12 | inconclusive [inhibitor, single point]
CC1CCN(CCCNC(=O)C2CCCN(c3ncnc4c3nc3n4CCCCC3)C2)CC1 (configuration not stated) | inconclusive [inhibitor, partial curve, poor fit]
Cc1ccc2c(c1)N(CCC(=O)NC1CC1)C(=O)C(C)O2 (configuration not stated) | inconclusive [inhibitor, full curve, poor fit]
COc1cc(Sc2ccc(C)cc2)c(OC)cc1N | inconclusive [inhibitor, full curve, poor fit]
O=C(Nc1ccncc1)C1CCN(S(=O)(=O)c2ccccc2C(F)(F)F)CC1 | inconclusive [inhibitor, partial curve]
CCN(CC)S(=O)(=O)c1ccc(C)c(NC(=O)CN2C(=O)NC3(CCCC3)C2=O)c1 | inconclusive [inhibitor, partial curve, poor fit]
CC/C(=N/Nc1ccccc1Cl)c1cnnc(-c2ccccc2)n1 | active: 2.33 µM
COc1ccc(C(CNC(=O)c2cccc(S(=O)(=O)NCc3ccccc3)c2)N2CCOCC2)cc1 (configuration not stated) | inconclusive [inhibitor, partial curve]
O=C(Nc1ccc(Cl)cc1)[C@@H]1[C@@H]2C(=O)N(c3cccc(F)c3)C(=O)[C@@H]2[C@H]2C=CC=NN21 | inactive
COc1cccc(CNC(=O)C2CCN(S(=O)(=O)N3CC(C)CC(C)C3)CC2)c1 (configuration not stated) | inconclusive [inhibitor, partial curve, poor fit]
Cc1ccc(NC2=NCC(=O)N2Cc2ccc3c(c2)OCO3)c(C)c1 | inactive
O=C(NC1CCCCC1)N1CCCC(c2nc(-c3cccs3)no2)C1 (configuration not stated) | inactive
Cc1cccc(N2CCN(c3nc4nonc4nc3N3CCSCC3)CC2)n1 | inconclusive [inhibitor, single point]
CCOc1ccc(NC(=O)Nc2ccc3c(c2)nc(C)n3C)cc1 | inconclusive [inhibitor, single point]
COc1cc(SC)ccc1C(=O)Nc1cccc(C2OCCCO2)c1 | inactive
C=CCSc1nc2ccccc2n1C(=O)/C=C/c1cc(OC)c(OC)c(OC)c1 | inconclusive [inhibitor, single point]
O=C(NNc1ccc(-c2csnn2)cc1)c1ccccc1C(F)(F)F | inconclusive [inhibitor, single point]
Cc1ccc(Cn2nnc3c(=O)n(Cc4cc(C)ccc4C)cnc32)cc1 | inconclusive [inhibitor, partial curve]
O=S(=O)(c1ccc2oc3ccccc3c2c1)N1CCCC1 | inconclusive [inhibitor, partial curve, poor fit]
Cc1ccc(C2=CC(=O)C[C@H](c3ccc(F)cc3)C2)cc1 | inconclusive [inhibitor, single point]
CCc1ccc(CN(C)C(=O)CC2C(=O)NCCN2Cc2ccoc2)cc1 (configuration not stated) | inactive

SMILES | Potency
C=CCNc1nc(C(=O)OCC(=O)c2cccc(Br)c2)cs1 | inactive
CC1(C)OC(=O)N(c2ccccc2)C12C=Cc1c(ccc3ccccc13)O2 (configuration not stated) | active: 13.1 µM
Cc1cc(NS(=O)(=O)c2ccc(Cl)cc2)nn1CC(=O)NCc1ccco1 | inactive
CN(C)CCNC(=O)c1sc2nc(-c3ccccc3)cc(C(F)(F)F)c2c1N | inconclusive [inhibitor, single point]
O=C1CC(Nc2ccc(N3CCOCC3)cc2)C(=O)N1Cc1ccccc1 (configuration not stated) | inactive
C=CCn1c(COc2ccccc2F)nnc1SCC(=O)N1CC(=O)Nc2ccccc21 | inconclusive [inhibitor, partial curve, poor fit]
Cc1ccc(OCC(=O)NC2=NCCS2)cc1 | inactive
O=C(NCC1CCCN(Cc2cccc(C(F)(F)F)c2)C1)c1ccc(F)cc1 (configuration not stated) | inconclusive [inhibitor, partial curve]
CCc1cc(C(=O)O)c(NC(=O)/C=C/c2ccc(OC)c(OC)c2)s1 | inconclusive [inhibitor, partial curve, poor fit]
CCOC(=O)N1CCN(CC(O)COC2CC(C)CCC2C(C)C)CC1 (configuration not stated) | inconclusive [inhibitor, single point]
C=CCNC(=S)N/N=C/c1ccc(C(F)(F)F)cc1 | inconclusive [inhibitor, single point]
CN1C(=O)[C@H]2[C@@H](/C=C/c3ccccc3)N3C(=O)CN(Cc4ccc(-c5ccccc5)cc4)C(=O)[C@@]3(Cc3ccccc3)[C@H]2C1=O | inconclusive [inhibitor, partial curve, poor fit]
CNC(C(=O)c1ccccc1)C(OC(C)C)c1ccc(Cl)cc1 (configuration not stated) | inconclusive [inhibitor, single point]
CC12CN(C(=O)c3cccc([N+](=O)[O-])c3)C3(C#N)CC1CCC23C (configuration not stated) | inactive
COC(=O)[C@@H](NC(=O)N1CCN(c2cccc(C(F)(F)F)c2)CC1)C(C)C | inconclusive [inhibitor, single point]
COc1cc(-c2cc(C(=O)Nc3cccc(S(=O)(=O)N(C)C)c3)c3ccccc3n2)cc(OC)c1OC | inconclusive [inhibitor, full curve, poor fit]
CCOc1ccc(Cl)cc1S(=O)(=O)N1CCC(C(=O)NC2CC2)CC1 | inconclusive [inhibitor, partial curve]
Cc1nnc(Sc2cc(C(=O)NCCCN(C)Cc3ccccc3)c3ccccc3n2)s1 | inconclusive [inhibitor, partial curve, poor fit]
Cc1ccc(S(=O)(=O)N2CCN(Cc3cc(C(C)C)ccc3O)CC2)cc1 | active: 10.4 µM
O=C(O)COc1ccc(NC(=O)c2ccc3c(c2)C(=O)N(C2CCCCC2)C3=O)cc1 | inconclusive [inhibitor, partial curve, poor fit]
Cc1nnc(NC2(C(F)(F)F)C(=O)Nc3c2c(=O)n(C)c(=O)n3C)s1 (configuration not stated) | inactive
